Laboratory results published in PubChem BioAssay AID1345082 (National Center for Advancing Translational Sciences (NCATS), 2018).
Out of some 94,000 compounds screened, about 4,000 (4.3%) were called active. The inconclusive results got no clear call from the source; some entries with a clear call stand among them for comparison. The call rests on the fitted dose curve; in most records, active means well fitted inhibition curve with a large enough effect; inconclusive means small, poorly fitted or top-dose-only effect; inactive means no such curve, though single readings can be large or run the other way. A potency beside an inconclusive call is a rough fit, not a confirmed value.

Test: Cytotoxic Profiling in NIH 3T3 Cell Line of Diverse Libraries Using Quantitative High-Throughput Screening; further: nearly all actives have a fitted effect of over 55% in size
Conditions: NIH 3T3 viability, CellTiter-Glo ATP luminescence, 48-72 h; activity change, negative = cytotoxicity: at 96.7 µM (top of the series); series mostly up to 96.7 µM
How it was run: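 Luminescent ATP readout (CellTiter-Glo, 10 min RT) after 48 or 72 hr compound exposure of NIH 3T3 cells seeded at 400 cells/well in 1536-well format; quantitative HTS.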
On the % scale 0 is the no-effect control and ±100 the full control effect; potency means the concentration at half of the fitted maximal effect; tags describe the fitted curve by direction and shape.

| SMILES | Potency | activity change, negative = cytotoxicity | outcome |
| --- | --- | --- | --- |
| COc1cccc(CN2CCCCCCNC(=O)[C@@H]3CCC[C@@H]32)c1 | inconclusive: 70.8 µM [inhibitor, single point] |  |  |
| COCC1CN(Cc2ccc(Cl)c(F)c2)CC12CCNCC2 (centres undefined) | inconclusive: 44.7 µM [inhibitor, partial curve, poor fit] |  |  |
| CN1CCNc2nc(CNc3cccc(F)c3)n(Cc3ccccc3)c2C1=O |  | inactive: -38.3% [at 138 µM] |  |
| CC1(C)[C@H](Cc2cc(-c3ccccc3)on2)C[C@@H]1NCC1CC1 | inconclusive: 56.2 µM [inhibitor, partial curve, poor fit] |  |  |
| Cc1ccc(N2CCN(C(=O)c3ccc4c(c3)N(C)C3CCCCN3C4=O)CC2)cc1 (centres undefined) | inconclusive: 50.1 µM [inhibitor, partial curve, poor fit] |  |  |
| C=CCc1ccccc1OCCN(C)Cc1nc(C)ccc1O | inconclusive: 44.7 µM [inhibitor, partial curve, poor fit] |  |  |
| COc1cccc(CNC(=O)c2cc(-c3ccc(C)cc3)nc3c2cnn3C)c1 | inconclusive: 35.5 µM [inhibitor, full curve, poor fit] |  |  |
| C#CCNC(=O)[C@@H]1Cc2cn(Cc3cc(C)on3)c3cccc(c23)[C@H](CC(C)C)N1 | inconclusive: 89.1 µM [inhibitor, partial curve, poor fit] |  |  |
| Cc1ccc(-c2cc(C3CCN(C(=O)c4ccncc4)CC3)[nH]n2)cc1 | inconclusive: 22.4 µM [inhibitor, full curve] |  |  |
| Cc1nn(-c2ccccc2)c2c1C(C1CC1)N(C1CN([S+](=O)([O-])c3cccs3)C1)C2=O (centres undefined) |  |  | inactive |
| CNC(=O)N1CCC(C2CCN(C3CCN(CCc4ccccc4)CC3)C2)CC1 (centres undefined) | inconclusive: 44.7 µM [inhibitor, partial curve, poor fit] |  |  |
| COc1cccc(CN2CCNc3cnc(OCc4cccnc4)cc3C2)c1 | inconclusive: 56.2 µM [inhibitor, partial curve, poor fit] |  |  |
| O=C(NC1CCCN(c2cc(-c3ccc(F)cc3)[nH]n2)C1)c1nccc2ccccc12 (centres undefined) | inconclusive: 50.1 µM [inhibitor, partial curve, poor fit] |  |  |
| O=C(C1CCCN(Cc2cccc(-c3ccsc3)c2)C1)N1CCN(c2ncccn2)CC1 (centres undefined) | inconclusive: 14.1 µM [inhibitor, full curve, poor fit] |  |  |
| O=[S+]([O-])(c1cccs1)N1CCN(Cc2ccccc2-c2cccnc2)CC1 | inconclusive: 50.1 µM [inhibitor, partial curve, poor fit] |  |  |
| O=C(NC1CC1)c1nc2sccn2c1-c1cccc(C(F)(F)F)c1 | inconclusive: 31.6 µM [inhibitor, partial curve] |  |  |
| CC1=C[C@@H](CNS(C)(=O)=O)[C@H](C(C)C)C[C@H]1Cc1nnc(-c2ccncc2)o1 | inconclusive: 100 µM [inhibitor, partial curve, poor fit] |  |  |
| COc1ccc2[nH]c3c(c2c1)CCNC31CCN(C(=O)C2CCC2)CC1 |  | inactive: -28.6% |  |
| Cc1nn(-c2ccc(C(C)(C)C)cc2)c(C)c1[C@@H]1C=C[C@@H](NC(=O)NC(C)C)C1 | active: 44.7 µM |  |  |
| CC(C)(C)c1ccc(C(=O)N2C[C@@H](CO)[C@H](c3ccccn3)C2)cc1 |  | inactive: -21% |  |

| SMILES | Potency | activity change, negative = cytotoxicity | outcome |
| --- | --- | --- | --- |
| Cc1c(C(=O)N(Cc2cccc(OCC3CCOC3)c2)Cc2ccccn2)[nH]c2ccc(Cl)cc12 (centres undefined) |  | inactive: -11.9% |  |
| Cc1nc(-c2c3n(c(=O)n(Cc4cc(F)cc(F)c4)c2=O)CCCCC3)no1 |  | inactive: -22.6% |  |
| CC(C)CCNC(=O)c1cnc2n1CCN(Cc1ccccc1F)CC2 | inconclusive: 89.1 µM [inhibitor, partial curve, poor fit] |  |  |
| COc1ccc(-c2noc([C@@H]3Cc4nc[nH]c4CN3Cc3cccs3)n2)cc1 | active: 89.1 µM |  |  |
| O=C(Nc1ccc(F)cc1)N[C@H]1[C@H](O)[C@@H](Sc2ccccc2)[C@@H]2OC[C@H]1O2 | inconclusive: 89.1 µM [inhibitor, partial curve] |  |  |
| CC(=O)NCCNC(=O)c1ccc(-c2cncnc2)cc1 |  | inactive: -18.4% [at 138 µM] |  |
| CCn1nccc1C(=O)N1CCC2(CC1)NC(=O)N(c1ccccc1)N2 | inconclusive: 15.8 µM [inhibitor, full curve] |  |  |
| O=C(Cc1ccccc1Cl)NC1CCN(c2cc(-c3ccc(F)cc3)[nH]n2)C1 (centres undefined) | inconclusive: 25.1 µM [inhibitor, partial curve, poor fit] |  |  |
| COC(=O)[C@@H]1Cc2ncn(Cc3ccc(OC)cc3)c2CN1C(=O)c1cccs1 | inconclusive: 126 µM [inhibitor, partial curve, poor fit] |  |  |
| O=C1CCN(C(=O)[C@@H]2CCCN2S(=O)(=O)c2ccccc2)CCCCCCN1 | inconclusive: 22.4 µM [inhibitor, partial curve, poor fit] |  |  |
| COCCN1C(=O)c2cccn2CC1CNC(=O)c1ccc(C)nc1 (centres undefined) |  |  | inactive |
| COc1ccc(S(=O)(=O)N2CCc3c(C(=O)N(C)C)cccc32)cc1 |  | inactive: -22.8% |  |
| COc1ccc(-c2nc(C)nc3c2CCN([S+](=O)([O-])c2c(C)noc2C)CC3)cc1 | inconclusive: 50.1 µM [inhibitor, partial curve, poor fit] |  |  |
| COc1ccc(-c2cc(C(=O)NCc3ccccn3)c3cnn(C)c3n2)cc1 | inconclusive: 50.1 µM [inhibitor, partial curve, poor fit] |  |  |
| CCN1CCCC2(Cc3ccccc3CN(C(=O)CCCC(=O)O)C2)C1 (centres undefined) | inconclusive: 70.8 µM [inhibitor, single point] |  |  |
| COCC(=O)NC[C@H]1O[C@@H](CO)[C@@H](O)[C@H]1N1CCC(C)CC1 |  | inactive: 3.67% [at 138 µM] |  |
| COc1ccc(-c2ccc(C(=O)N3CCN(C(=O)c4ccccc4F)CC3)cc2)nn1 | inconclusive: 50.1 µM [inhibitor, partial curve, poor fit] |  |  |
| COc1ccc2c(c1)CN(Cc1ccccc1)C(=O)CCN2C(=O)C1CCC1 | inconclusive: 70.8 µM [inhibitor, partial curve, poor fit] |  |  |
| COc1cccc(-c2ccc(CN3C4CCC3CN(C(=O)c3ccncc3)C4)cc2)c1 | inconclusive: 28.2 µM [inhibitor, partial curve, poor fit] |  |  |
